Laboratory results: patent publication EP4768039A1, “PHARMACEUTICAL COMPOSITION AND USE THEREOF” (Shanghai Regenelead Therapies Co., Ltd., priority 2023, dated 2025)

T1: Human VEGF-A protein (human, UniProt P15692-4 27-191, limits assumed)
T1 sequence (looked up): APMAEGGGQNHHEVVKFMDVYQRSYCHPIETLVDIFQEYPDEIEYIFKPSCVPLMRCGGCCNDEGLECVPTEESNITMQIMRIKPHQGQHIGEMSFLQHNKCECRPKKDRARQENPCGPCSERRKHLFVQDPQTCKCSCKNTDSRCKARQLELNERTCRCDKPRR


Legend:
Assay in all cases: cell-based or functional assay
[1] = target: T1, Human VEGF-A protein
[2] = target: T1, Human VEGF-A protein; remark: listed apart in the source
[3] = target: T1, Human VEGF-A protein; remark: listed apart in the source

VEGF-A IC50 (nM); VEGF-A-induced NFAT-RE Luc2P KDR reporter cells [1]	VEGF-A IC50 (nM); VEGF-A-induced NFAT-RE Luc2P KDR reporter cells [2]	VEGF-A IC50 (nM); VEGF-A-induced NFAT-RE Luc2P KDR reporter cells [3]	Binder
0.5 nM	0.72 nM	0.76 nM	Aflibercept (PR1076), R1D2-R2D3-Fc (Fc fusion) SDTGRPFVEMYSEIPEIIHMTEGRELVIPCRVTSPNITVTLKKFPLDTLIPDGKRIIWDSRKGFIISNATYKEIGLLTCEATVNGHLYKTNYLTHRQTNTIIDVVLSPSHGIELSVGEKLVLNCTARTELNVGIDFNWEYPSSKHQHKKLVNRDLKTQSGSEMKKFLSTLTIDGVTRSDQGLYTCAASSGLMTKKNSTFVRVHEK[human IgG1 Fc not spelt out]
0.92 nM			PR1145(R1D2-R2D3-linker-R2D2(C162V)-R2D3(S283T)-Fc) (Fc fusion) SDTGRPFVEMYSEIPEIIHMTEGRELVIPCRVTSPNITVTLKKFPLDTLIPDGKRIIWDSRKGFIISNATYKEIGLLTCEATVNGHLYKTNYLTHRQTNTIIDVVLSPSHGIELSVGEKLVLNCTARTELNVGIDFNWEYPSSKHQHKKLVNRDLKTQSGSEMKKFLSTLTIDGVTRSDQGLYTCAASSGLMTKKNSTFVRVHEKGGGGSSPFIASVSDQHGVVYITENKNKTVVIPCLGSISNLNVSLVARYPEKRFVPDGNRISWDSKKGFTIPSYMISYAGMVFCEAKINDESYQSIMYIVVVVGYRIYDVVLSPSHGIELSVGEKLVLNCTARTELNVGIDFNWEYPSSKHQHKKLVNRDLKTQSGTEMKKFLSTLTIDGVTRSDQGLYTCAASSGLMTKKNSTFVRVHEK[human IgG1 Fc with changes not spelt out]
	1.02 nM		PR1174(R1D2-R2D3-linker-R2D2(C162V/Y221S/R222K)-R2D3(N274F/S283T)-Fc) (Fc fusion) SDTGRPFVEMYSEIPEIIHMTEGRELVIPCRVTSPNITVTLKKFPLDTLIPDGKRIIWDSRKGFIISNATYKEIGLLTCEATVNGHLYKTNYLTHRQTNTIIDVVLSPSHGIELSVGEKLVLNCTARTELNVGIDFNWEYPSSKHQHKKLVNRDLKTQSGSEMKKFLSTLTIDGVTRSDQGLYTCAASSGLMTKKNSTFVRVHEKGGGGSSPFIASVSDQHGVVYITENKNKTVVIPCLGSISNLNVSLVARYPEKRFVPDGNRISWDSKKGFTIPSYMISYAGMVFCEAKINDESYQSIMYIVVVVGSKIYDVVLSPSHGIELSVGEKLVLNCTARTELNVGIDFNWEYPSSKHQHKKLVFRDLKTQSGTEMKKFLSTLTIDGVTRSDQGLYTCAASSGLMTKKNSTFVRVHEK[human IgG1 Fc with changes not spelt out]

Read-outs that look alike come from different tables or passages of the source.
